{"source": "PubChem BioAssay AID588855", "about": "(National Center for Advancing Translational Sciences (NCATS), 2011)", "note": "About 5,000 (1.2%) of roughly 410,000 compounds were called active. The shares of active, inactive and inconclusive entries below differ from those in the screen. Calls follow the shape of the dose curve; as a rule, active = well fitted inhibition curve with a large enough effect; inconclusive = small, poorly fitted or top-dose-only effect; inactive = no such curve, though single readings can be large or run the other way. Where the call is inconclusive, the potency comes from a doubtful curve fit. % is scaled to controls: 0 for no effect and ±100 for the full control effect; potency is read from the fitted curve at half-maximal effect; tags tell the direction and shape of the fitted curve.", "data": [{"experiment": "qHTS for Inhibitors of TGF-b; also: nearly all actives have a fitted effect of over 65% in size", "conditions": "HepG2 CAGA-GFP TGF-b/SMAD3 reporter, GFP fluorescence, 18 h, TGF-beta stimulated, 500 pg/mL final; series mostly up to 46.1 µM; activity, negative = inhibition: at the top concentration", "outline": "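Inhibition of TGF-beta-driven CAGA-GFP reporter expression in HEPG2 cells is measured by cellular GFP fluorescence after 18 h stimulation with 500 pg/mL recombinant TGF-beta in 1% FBS medium at 37 degrees C.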", "values": [{"smiles": "O=C(CNc1cccc2ccccc12)c1ccc([N+](=O)[O-])cc1", "Potency": "inconclusive: 3.16 µM [inhibitor, single point]"}, {"smiles": "c1cc(-c2cc3nc(NC4CCCCC4)ccn3n2)ccc1OCCN1CCOCC1", "Potency": "active: 11.2 µM"}, {"smiles": "O=C(NCc1ccc(F)cc1)C1CCN(c2ncnc3c2nc2n3CCCCC2)CC1", "Potency": "inconclusive: 25.1 µM [inhibitor, single point]"}, {"smiles": "COc1ccc(CNC(=O)c2ccc3c(c2)N(Cc2ccccc2C)C(=O)c2ccccc2S3=O)cc1", "note": "(configuration not stated)", "activity, negative = inhibition": "inactive: 23.8%"}, {"smiles": "CCCCNC(=O)CSc1nc2cc3c(cc2c(=O)n1Cc1ccco1)OCO3", "activity, negative = inhibition": "inactive: -19.9%"}, {"smiles": "CCOc1ccc(CN2C(=O)c3ccccc3Sc3ccc(C(=O)OC)cc32)cc1", "activity, negative = inhibition": "inactive: 4.99%"}, {"smiles": "Cc1c(C(=O)OCC2CCCO2)[nH]c2c1C(=O)CC(c1ccco1)C2", "note": "(configuration not stated)", "activity, negative = inhibition": "inactive: -2.96%"}, {"smiles": "CC(=O)Nc1ccc(S(=O)(=O)NCc2cccn2Cc2cccc(C)c2)cc1", "Potency": "inconclusive: 20 µM [inhibitor, single point]"}, {"smiles": "CCS(=O)(=O)c1ccc(OC)c(N=Nc2ccc(O)c3ncccc23)c1", "activity, negative = inhibition": "inactive: 5.03%"}, {"smiles": "Cc1cccc(C)c1NC(=O)C(C)c1ccc(-c2ccccc2)c(F)c1", "note": "(configuration not stated)", "Potency": "inconclusive: 12.6 µM [inhibitor, single point]"}, {"smiles": "COc1ccc(N2CC(NC(=O)c3ccco3)CC2=O)cc1OC", "note": "(configuration not stated)", "activity, negative = inhibition": "inactive: 2.36%"}, {"smiles": "COc1ccc(C(OC(=O)c2ccco2)C(=O)NC2CCCC2)cc1", "note": "(configuration not stated)", "activity, negative = inhibition": "inactive: 0.238%"}, {"smiles": "O=C(O)CNc1ccc(S(=O)(=O)C(F)(F)F)cc1[N+](=O)[O-]", "Potency": "inconclusive: 0.178 µM [inhibitor, full curve]"}, {"smiles": "O=C(OCc1nnc(-c2ccccc2)o1)c1cc([N+](=O)[O-])ccc1Cl", "Potency": "inconclusive: 35.5 µM [inhibitor, single point]"}, {"smiles": "COc1ccc(C(=O)NNC(=O)c2cc3cc([N+](=O)[O-])ccc3oc2=O)cc1OC", "activity, negative = inhibition": "inactive: 8.14%"}, {"smiles": "O=C(c1ccc2c(c1)CCN2S(=O)(=O)c1ccc(Cl)cc1)N1CCN(c2ccccc2)CC1", "Potency": "inconclusive: 12.6 µM [inhibitor, partial curve, poor fit]"}, {"smiles": "CCOC(=O)C1=CN(CC)S(=O)(=O)NC1c1ccc(C(F)(F)F)cc1", "note": "(configuration not stated)", "activity, negative = inhibition": "inactive: -14.3%"}, {"smiles": "Cc1cc(C)c2c(=O)cc(CSc3nnc(-c4ccccc4)n3C)[nH]c2c1", "activity, negative = inhibition": "inactive: -37.2%"}, {"smiles": "CC(=O)Nc1nc(C)nc(C)c1C(C)=O", "activity, negative = inhibition": "inactive: 16.6%"}, {"smiles": "COc1ccc(C2CC(c3cccc(OC)c3)=NN2c2ccc(S(N)(=O)=O)cc2)cc1", "note": "(configuration not stated)", "Potency": "inconclusive: 28.2 µM [inhibitor, single point]"}, {"smiles": "Cc1ccc(CNc2ccc(O)cc2)cc1", "Potency": "active: 10 µM"}, {"smiles": "C/C(=N\\OCc1nc2ccccc2c(=O)n1/N=C/c1cc([N+](=O)[O-])ccc1O)c1ccccc1", "Potency": "inconclusive: 35.5 µM [inhibitor, single point]"}]}]}
